# From PubChem BioAssay AID686978 (National Center for Advancing Translational Sciences (NCATS), 2013)
# Among all 420,000 compounds or so, about 64,000 (15%) were called active. The shares of active, inactive and inconclusive entries below differ from those in the screen. Calls follow the shape of the dose curve; as a rule, active = well fitted inhibition curve with a large enough effect; inconclusive = small, poorly fitted or top-dose-only effect; inactive = flat fitted curve, though single readings scatter. Potencies of inconclusive entries are left out as doubtful fits.
# Assay: qHTS for Inhibitors of human tyrosyl-DNA phosphodiesterase 1 (TDP1): qHTS in cells in absence of CPT; also: nearly all actives have a fitted effect of over 55% in size
# Conditions: DT40 Tdp1-/- hTDP1 cells, no CPT, ATP luminescence, 48 h; activity change, negative = growth inhibition: at 46.2 µM (top of the series) unless noted
# In short: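 Cells were dispensed at 400 per well, compounds added by pin tool, plates incubated ≥48 hr at 37 °C, then CellTiter-Glo added for 30 min at room temperature before luminescence reading. Line: DT40 Tdp1-/- complemented with hTDP1; camptothecin omitted.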
# % is scaled to controls: 0 for no effect and ±100 for the full control effect; potency is read from the fitted curve at half-maximal effect; tags tell the direction and shape of the fitted curve.
SMILES,Potency,"activity change, negative = growth inhibition"
O=C(NNc1nc2c(F)cccc2s1)c1cc(=O)c2ccccc2o1,"inconclusive [inhibitor, single point]",–
Cc1ccc(NC(=O)N2CCc3ccccc32)cc1,"inconclusive [inhibitor, single point]",–
O=C(Nc1c[nH]c(=O)[nH]c1=O)c1ccc([N+](=O)[O-])cc1,inactive,–
CCc1nnc(NC(=O)CCC(=O)N2CCN(c3cc(Cl)ccc3C)CC2)s1,inactive,–
COc1cc2c(cc1NC(=O)c1ccc(C(C)(C)C)cc1)CCCC2,"inconclusive [inhibitor, single point]",–
Cc1ccc(CN(C)C(=O)c2ccccc2Sc2ccccc2C#N)cc1,"inconclusive [inhibitor, partial curve]",–
CCC1(C)Cc2c(sc3nnn(CC(=O)Nc4cccc5ccccc45)c(=O)c23)CO1 (configuration not stated),"inconclusive [inhibitor, partial curve]",–
COc1cc(OC)c2c(-c3cccc(-c4ccc(C#N)cc4)c3)cc(=O)oc2c1,active: 4.11 µM,–
COc1ccc(OC)c(C2C(C(=O)c3ccc(C)o3)=C(O)C(=O)N2c2cc(C)on2)c1 (configuration not stated),"inconclusive [inhibitor, single point]",–
CN1CCN(C2=Cc3ccccc3Sc3cc(F)c(Cl)cc32)CC1,active: 29.1 µM,–
CC(=O)NC1=NC(=O)/C(=C/c2cc(C)n(-c3cccc(C(=O)O)c3)c2C)S1,"inconclusive [inhibitor, partial curve]",–
CCCCNc1nc(-c2ccccc2)cc(C(F)(F)F)c1C(N)=O,"inconclusive [inhibitor, single point]",–
COc1cccc(NC(=O)CN(C)C(=O)CCCc2c[nH]c3ccccc23)c1,"inconclusive [inhibitor, single point]",–
CCN(c1ccccc1)S(=O)(=O)c1ccc2ccccc2c1,inactive,–
COC(=O)CCN1CCC2CC1c1cc(N3CCCCC3)ccc12 (configuration not stated),inactive,–
Cc1ccc2[nH]c(O)c(N=O)c2c1,"inconclusive [inhibitor, single point]",–
COc1ccc(N2CCN(C(=O)Cn3cnc4sc(C)c(S(=O)(=O)N5CCCCC5)c4c3=O)CC2)cc1,"inconclusive [inhibitor, single point]",–
CC(=O)/C(=N/Nc1ccc([N+](=O)[O-])cc1)N1CCCc2ccccc21,"inconclusive [inhibitor, single point]",–
Cn1c2ccccc2c(=O)c2c(=O)n(Cc3ccco3)c(COc3ccccc3)nc21,active: 14.6 µM,–
Cc1cc(C(=O)N2CCN(c3cc(Cl)ccc3C)CC2)on1,inactive,–
O=C(CC1C(=O)NCCN1Cc1ccc(-c2ccccc2)cc1)NCc1ccncc1 (configuration not stated),"inconclusive [inhibitor, single point]",–
CCc1ccc(C(=O)c2oc3nc(C)cc(C)c3c2N)cc1,"inconclusive [inhibitor, single point]",–
CCOC(=O)c1c(-c2ccc(C)cc2)csc1NC(=O)/C(C#N)=C/c1ccc(O)c(OC)c1,active: 14.6 µM,–
CCN1CCN(c2ccccc2NC(=O)C(C)Oc2ccc(C(C)=O)cc2)CC1 (configuration not stated),inactive,–

SMILES,Potency,"activity change, negative = growth inhibition"
COc1cc(C)ccc1OCC(=O)Nc1ccccc1N1CCOCC1,"inconclusive [inhibitor, single point]",–
COc1cccc2cc(C(=O)Nc3cccnc3N3CCOCC3)c(=O)oc12,"inconclusive [inhibitor, partial curve]",–
Nc1nn(S(=O)(=O)c2cccc3nsnc23)cc1-c1ccc(Br)cc1,"inconclusive [inhibitor, partial curve, poor fit]",–
Cc1ccc(C(=O)OCC(=O)Nc2cc(C(C)(C)C)nn2-c2ccccc2)c(O)c1,"inconclusive [inhibitor, partial curve, poor fit]",–
Cc1ccc(CNC(=S)NCc2ccncc2)cc1,"inconclusive [inhibitor, partial curve, poor fit]",–
O=C(CSc1cn(CCNC(=O)c2ccccc2F)c2ccccc12)Nc1ccc2c(c1)OCCO2,active: 16.4 µM,–
CC(=O)c1c(C(C)=O)c(C)n(Cc2ccccc2)c1C,"inconclusive [inhibitor, single point]",–
ON/C=N/C(=S)Nc1ncc(C(F)(F)F)cc1Cl,active: 11.6 µM,–
CC(C)C(=O)NCCc1nc2ccccc2n1CCOc1ccccc1,"inconclusive [inhibitor, single point]",–
CC(=O)c1ccc(NC(=O)CSc2ccsc2[N+](=O)[O-])cc1,inactive,–
CN1c2ccccc2C(=O)/C(=C\Nc2ccc(F)cc2F)S1(=O)=O,inactive,–
CS(=O)(=O)c1ccc2nc(NC(=O)c3cccs3)sc2c1,"inconclusive [inhibitor, single point]",–
O=C(CCCSc1nc2ccccc2c(=O)[nH]1)c1ccc(F)cc1,"inconclusive [inhibitor, single point]",–
CC(C)(C)c1cc(NC(=O)Nc2ccccc2OC(F)(F)F)no1,"inconclusive [inhibitor, single point]",–
COc1ccc(N2CCN(C(=O)CCNS(=O)(=O)c3ccc(Br)s3)CC2)cc1,"inconclusive [inhibitor, single point]",–
O=P(O)(O)C(O)(Cc1cnc2ccccn12)P(=O)(O)O,inactive,–
CC(=O)c1ccc(S(=O)(=O)N(C)CCCC(=O)N(C)Cc2c(F)cccc2Cl)cc1,"inconclusive [inhibitor, partial curve]",–
O=C(C1CCC1)N1CCc2cc(S(=O)(=O)NCCCN3CCCCC3)ccc21,inactive,–
Cc1cc(C)nc(SCc2ccc(C(=O)N/N=C/c3ccncc3)cc2)n1,inactive,–
CC1CCN(C(C(=O)NC2CCCCC2)c2cc3c(cc2[N+](=O)[O-])OCO3)CC1 (configuration not stated),inactive,–
CCCNC(=O)C1(C)CCCN(C(=O)Cc2ccc(OC)cc2)C1 (configuration not stated),inactive,–
COc1ccc(Cl)cc1S(=O)(=O)N(C)CC(=O)NCc1ccc2c(c1)OCO2,inactive,–
O=C1CSC(=S)N1c1cccnc1,"inconclusive [inhibitor, single point]",–
COc1ccc(C(=O)NCc2cn3cccc(C)c3n2)cc1OC,inactive,–

SMILES,Potency,"activity change, negative = growth inhibition"
C=CCn1c(=O)c2c(nc3n2CC(C)CN3CCc2ccccc2)n(C)c1=O (configuration not stated),"inconclusive [inhibitor, single point]",–
Cc1cccc(NS(=O)(=O)c2cccc(C(=O)NCC(C)(C)N3CCOCC3)c2)c1,inactive,–
C=CCOc1ccc(/C=N/NC(=O)C(C)Sc2ccccn2)cc1OCC (configuration not stated),"inconclusive [inhibitor, partial curve, poor fit]",–
CSc1ccccc1NC(=O)CN(C)CC(=O)Nc1cc(C)ccc1C,active: 20.6 µM,–
O=C(Nc1nc(-c2ccco2)cs1)c1ccccc1,"inconclusive [inhibitor, single point]",–
O=C(CS(=O)(=O)c1cn(Cc2ccc(Cl)cc2)c2ccccc12)N1CCOCC1,"inconclusive [inhibitor, single point]",–
CCN(CC(=O)NC1CCS(=O)(=O)C1)c1nc(-c2ccccc2)nc2ccccc12 (configuration not stated),"inconclusive [inhibitor, single point]",–
O=S(=O)(NN=C1CCCCCCC1)c1ccccc1,inactive,–
Cc1ccc(NC(=O)CNC(=O)c2ccco2)nc1,inactive,–
COCCCNc1nc2ccccc2nc1NS(=O)(=O)c1ccc(Cl)cc1,"inconclusive [inhibitor, single point]",–
Cc1ccc(S(=O)(=O)C2(C(=O)Nc3nccs3)CC2)cc1,"inconclusive [inhibitor, single point]",–
CCN(CC)CCN(C(=O)C1=COCCO1)c1nc2cc3c(cc2s1)OCO3,inactive,–
CC(C)(C)c1nnc(NC(=O)CCS(=O)(=O)c2ccccc2)s1,active: 23.1 µM,–
CC(=O)Oc1ccc2ccccc2c1C(NC(=O)Cc1ccccc1)c1ccccc1Cl (configuration not stated),"inconclusive [inhibitor, single point]",–
Cc1cccc(C(=O)N2CCN(Cc3ccc4c(c3)OCO4)CC2)c1,"inconclusive [inhibitor, single point]",–
O=C(Nc1ccccc1C(=O)Nc1ccc(Cl)cc1)c1cccnc1,inactive,–
COc1cccc(NC(=O)CSc2cc(C)c3ccccc3n2)c1,"inconclusive [inhibitor, single point]",–
CN(C)S(=O)(=O)c1cccc(COC(=O)c2cccnc2Cl)c1,"inconclusive [inhibitor, partial curve]",–
O=C(N/N=C\c1ccccn1)c1cccc(C(=O)N/N=C\c2ccccn2)n1,–,inconclusive: -33% [inhibitor]
COc1cc2c(cc1OC)CN(C(=O)CNS(=O)(=O)c1ccc(C)c(C)c1)CC2,inactive,–
COc1ccccc1/C=C/C(=O)NNC(=O)c1cccs1,inactive,–
CC(C)(C)c1ccc(OCCC(=O)OCC(=O)NC2CCS(=O)(=O)C2)cc1 (configuration not stated),"inconclusive [inhibitor, single point]",–
Cc1ccc2c(Sc3ccc(Cl)cc3)c(C(=O)N3CCCCC3)[nH]c2c1,"inconclusive [inhibitor, single point]",–
CCN(C(=O)COC(=O)c1cc(S(=O)(=O)Nc2c(C)n(C)n(-c3ccccc3)c2=O)ccc1Cl)C1CCCCC1,"inconclusive [inhibitor, single point]",–
